For orientation: Ki means a dissociation constant, usually derived from enzyme kinetics or from competition with a known ligand.

The results in this text go back to ChEMBL document CHEMBL1128428, “Inhibition of matrix metalloproteinases by hydroxamates containing heteroatom-based modifications of the P1' group” (J Med Chem, 1995).

Each structure is given as a SMILES string.

The target of the first experiment is Stromelysin-1 (Homo sapiens, UniProt P08254).
With `CC(C)(C)[C@H](NC(=O)[C@H](CCCCOc1ccccc1)CC(=O)NO)C(=O)NCCC(=O)O`, the Ki was 0.003 µM. `CNC(=O)[C@@H](NC(=O)[C@H](CCCCOc1ccc(C(C)(C)C)cc1)CC(=O)NO)C(C)(C)C`: the Ki turned out to be 0.016 µM. The same measure, in the same setting: next, `CNC(=O)[C@@H](NC(=O)[C@H](CCCCOc1ccc(Cl)c(Cl)c1)CC(=O)NO)C(C)(C)C`: 0.062 µM; `CNC(=O)[C@@H](NC(=O)[C@H](CCCCOc1ccccc1)CC(=O)NO)C(C)(C)C`: 0.006 µM; `CC(C)(C)[C@H](NC(=O)[C@H](CCCCOc1ccc(Cl)cc1)CC(=O)NO)C(=O)NCCCN1CCOCC1`: < 0.002 µM. Still for that read-out and setting: the same measure for `CNC(=O)[C@@H](NC(=O)[C@H](CCCCOc1ccc(F)cc1)CC(=O)NO)C(C)(C)C`: 0.038 µM; for `CCCCCc1ccc(OCCCC[C@H](CC(=O)NO)C(=O)N[C@H](C(=O)NC)C(C)(C)C)cc1`: 0.014 µM; for `CC(C)(C)[C@H](NC(=O)[C@H](CCCCOc1ccc(Cl)cc1)CC(=O)NO)C(=O)NCCc1ccccc1`: 0.005 µM. As for `CC(C)(C)[C@H](NC(=O)[C@H](CCCCOc1ccccc1)CC(=O)NO)C(=O)NCCCC(=O)O`, the Ki stood at 0.002 µM. Compound `CNC(=O)[C@@H](NC(=O)[C@H](CCCCOc1cccc(Cl)c1)CC(=O)NO)C(C)(C)C` gave a Ki of 0.112 µM. Turning to `CNC(=O)[C@@H](NC(=O)[C@H](CCCCOc1ccc(OC)cc1)CC(=O)NO)C(C)(C)C`, the affinity corresponds to a Ki of 0.041 µM. As to `CC(C)(C)[C@H](NC(=O)[C@H](CCCCOc1ccc(Cl)cc1)CC(=O)NO)C(=O)NCCc1ccc(S(N)(=O)=O)cc1`, the Ki is < 0.002 µM. Compound `CNC(=O)[C@@H](NC(=O)[C@H](CCCCOc1cccc(C)c1)CC(=O)NO)C(C)(C)C` displayed a Ki of 0.054 µM. Take `CC(C)(C)[C@H](NC(=O)[C@H](CCCCOc1ccc(Cl)cc1)CC(=O)NO)C(=O)NCCc1ccccn1`: affinity was put at a Ki of 0.006 µM. The same measure, in the same setting: the same measure for `CCCc1ccc(OCCCC[C@H](CC(=O)NO)C(=O)N[C@H](C(=O)NC)C(C)(C)C)cc1`: 0.011 µM; for `CC(C)(C)[C@H](NC(=O)[C@H](CCCCOc1ccc(Cl)cc1)CC(=O)NO)C(=O)NCCN1CCCC1`: 0.005 µM. In the case of `CNC(=O)[C@@H](NC(=O)[C@H](CCCCOc1ccc(C(C)C)cc1)CC(=O)NO)C(C)(C)C`, the Ki was 0.012 µM. As to `CNC(=O)[C@@H](NC(=O)[C@H](CCCCOc1cccc(OC)c1)CC(=O)NO)C(C)(C)C`, affinity was put at a Ki of 0.065 µM.

The target in the next experiment is Neutrophil collagenase (Homo sapiens, UniProt P22894).
With `CNC(=O)[C@H](Cc1ccccc1)NC(=O)[C@@H](CC(=O)NO)CC(C)C`, the Ki worked out at 0.002 µM.
